Assay results: the RNAGym collection of RNA variant scans (doi:10.1093/nar/gkz1192)
Read counts are not given, so values of variants with three or more changes are uncertain.

B1: CPEB3 Ribozyme (parent)
chain: UAACAGGGGGCCACAGCAGAAGCGUUCACGUCGCAGCCCCUGUCAGAUUCUGGUGAAUCUGCGAAUUCUGCUGUAUAUCUC

Variants of: B1
Assay: self-cleavage, relative activity (ratio to wild type); higher = more cleavage; in vitro, sequencing
Procedure, shortened: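 Relative activity compares each variant's cleaved/total read fraction with that of the unmutated ribozyme. To get these fractions, barcoded CPEB3 ribozyme libraries from rounds of error-prone PCR were transcribed with T7 RNA polymerase for 5 hours at 37°C and then given 15 min of DNase I treatment before EDTA was added. The RNAs were reverse transcribed with template switching and sequenced on Illumina, and DNA sequencing linked barcodes to variants. A minimum of 5 reads applied, and three batches were averaged.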

| Variant | self-cleavage |
| --- | --- |
| UAACUGGGGGCCACAGCAGAUGCGUUCACGUCGCAGCCCCUGUCAGAUGCUGGAGAAUCGGCGAAUUCUGCUGUAUAUCUC [A5U A21U U49G U54A U60G] | 0.08 |
| UAACUGGGGGCCACAGCAGAAGCGUUCCCGUCGCAGCCCCUGUCAGAUUCUGGUGAAUCUGGGAAUUCUGCUGUAUAUCUC [A5U A28C C62G] | 0.74 |
| UAACUGGGGGCCACAGCAGAAGCGUUCGCGUCGCGGCCCCUGUCAGAUUCUGGUGAAUCUGCGAAUUCUGCUGUUUAUCCC [A5U A28G A35G A75U U80C] | 1.48 |
| UAACUGGGGGCCACAGCAGAAGCGUUCGCGUCGCAGCCCCUGUCAGAUUCUGGCGAAUCUGCGAACUCUGCUGUAUAACUC [A5U A28G U54C U66C U78A] | 0.08 |
| UAACUGGGGGCCACAGCAGAAGCGUUCGCGUCGCAGCCCCUGUCAGAUUCUGGUGAAUCCGCGAAUUCUGCUGCAUAUCUC [A5U A28G U60C U74C] | 0.55 |
| UAACUGGGGGCCACAGCAGAAGCGUUCUCGUCGCUGCCCCUGUCAGAUUCUGGUGAAUCUGCGGAUUCUGCUGUAUACCUC [A5U A28U A35U A64G U78C] | 0.49 |
| UAACUGGGGGCCACAGCAGAAGCGUUCUCGACGCAGCCCCUGUCUGAUUCUGGUGGAUCAGCGAAUUCUGCCGUAUAUCUC [A5U A28U U31A A45U A56G U60A U72C] | 0.65 |
| UAACUGGGGGCCACAGCAGAAGCGUUCUCGUCGCAGCCCCAGUCAGUUUCUGGUGAAUCUGCGAAUUCUGCUGUUUGUCUC [A5U A28U U41A A47U A75U A77G] | 0.2 |
| UAACUGGGGGCCACAGCAGAAGCGUUCUCGUCGCAGCCCCUGCCAGAUUCUGGUGAUUCUGCGCAUUCUGCUGCAUAUCUC [A5U A28U U43C A57U A64C U74C] | 0.12 |
| UAACUGGGGGCCACAGCAGAAGCGUUCACGUCGCGGCCCCUGUCAGAUUCUGGUGGAUCUGCGAAUUCUGCUGUAUAUCUC [A5U A35G A56G] | 1.32 |
| UAACUGGGGGCCACAGCAGAAGCGUUCACGUCGCGGCCCCUGUCAGAUUCUGGUGGAUCUGCGAAUUCUGCUGUAUAGCUC [A5U A35G A56G U78G] | 1.3 |
| UAACUGGGGGCCACAGCAGAAGCGUUCACGUCGCGGCCCCGGUCAGGUUCUGGUGAAUCUGCGAAUUCUGCAGUAUAUCUC [A5U A35G U41G A47G U72A] | 0.07 |
| UAACUGGGGGCCACAGCAGAAGCGUUCACGUCGCGGCCCCUGUCAGAUCCUGGGGAAUCUGCGGAUUCUGCCGUAUAUCUC [A5U A35G U49C U54G A64G U72C] | 0.83 |
| UAACUGGGGGCCACAGCAGAAGCGUUCACGUCGCUGCCCCUGUCAGAUCCAGGUGAAUCUGCGAAUUCUGCUGUAUAGCUC [A5U A35U U49C U51A U78G] | 0.31 |
| UAACUGGGGGCCACAGCAGAAGCGUUCACGUCGCUGCCCCUGUCAGAUUCUGGUGAACCUACGAAUUCUGCUGUAUAUCUC [A5U A35U U58C G61A] | 0.09 |
| UAACUGGGGGCCACAGCAGAAGCGUUCACGUCGCAGCCCCUGUCGGUUUCUGGUGAAUCUGCGAAUUCUGCUGUAUAUCUC [A5U A45G A47U] | 0.37 |
| UAACUGGGGGCCACAGCAGAAGCGUUCACGUCGCAGCCCCUGUCGGAUUCUGGUGAAUCUGCGAAUUCUGCUGUAUAUCAC [A5U A45G U80A] | 0.7 |

| Variant | self-cleavage |
| --- | --- |
| UAACUGGGGGCCACAGCAGAAGCGUUCACGUCGCAGCCCCUGUCUGAUUCUGGUGAAUCUGCGAAUUCUGCUGUAUGUCUC [A5U A45U A77G] | 0.75 |
| UAACUGGGGGCCACAGCAGAAGCGUUCACGUCGCAGCCCCUGUCUGAUUCUGGUGAAUCUGCGAAUUCCGCUGUAUAUCUC [A5U A45U U69C] | 0.24 |
| UAACUGGGGGCCACAGCAGAAGCGUUCACGUCGCAGCCCCUGUCAGGUUCUGGUGAUUCUGCGAAUUCUGCUGUAUAUCUC [A5U A47G A57U] | 0.43 |
| UAACUGGGGGCCACAGCAGAAGCGUUCACGUCGCAGCCCCUGUCAGGUUCUGAUGAAUCUGCGAAUUCUGCUGUAUAUCCC [A5U A47G G53A U80C] | 1.09 |
| UAACUGGGGGCCACAGCAGAAGCGUUCACGUCGCAGCCCCUGUCAGGUUCCGGUGUAUCUGCGAAUUCUGCUGUAUAUCUC [A5U A47G U51C A56U] | 0.25 |
| UAACUGGGGGCCACAGCAGAAGCGUUCACGUCGCAGCCCCUGUCAGGUUCUGGUGAAUCUGCGAAGCCUGCCGUAUAUCUC [A5U A47G U66G U67C U72C] | 0.26 |
| UAACUGGGGGCCACAGCAGAAGCGUUCACGUCGCAGCCCCUGUCAGUUUCUGGUGAAUCUGCGAAUCCUGCUGUAUAUCUC [A5U A47U U67C] | 0.23 |
| UAACUGGGGGCCACAGCAGAAGCGUUCACGUCGCAGCCCCUGUCAGAUUCUGGUGUAUCUGCGAAUUCUGCUGUAUAUCUU [A5U A56U C81U] | 0.92 |
| UAACUGGGGGCCACAGCAGAAGCGUUCACGUCGCAGCCCCUGUCAGAUUCUGGUGAGUCUGCGAAUUUUGCUGUAUAUCUC [A5U A57G C68U] | 0.86 |
| UAACUGGGGGCCACAGCAGAAGCGUUCACGUCGCAGCCCCUGUCAGAUUCUGGUGAAUCUGCGGGUUCUGCUGUAUAUCUC [A5U A64G A65G] | 0.19 |
| UAACUGGGGGCCACAGCAGAAGCGUUCACGUCGCAGCCCCUGUCAGAUUCUGGUGAAUCUGCGGACUCUGCUGUAUAUCUC [A5U A64G U66C] | 0.29 |
| UAACUGGGGGCCACAGCAGAAGCGUUCACGUCGCAGCCCCUGUCAGAUUCUGGUGAAUCUGCGUAUUCUGCUGUAUAUCCC [A5U A64U U80C] | 0.23 |
| UAACUGGGGGCCACAGCAGAAGCGUUCACGUCGCAGCCCCUGUCAGAUUCUGGUGAAUCUGCGAGUUCUGCUGCAUAUCUC [A5U A65G U74C] | 0.58 |
| UAACUGGGGGACACGGCAGAAGCGUUCACGACGCAGCCCCUGUCGGAUUCUGAUGAAUCUGCGAAUUCUGCUGUAUAUCUC [A5U C11A A15G U31A A45G G53A] | 0.09 |
| UAACUGGGGGACACAGCGGAAGCGUUCACGUCGUAGCCCUUGUCAGAUUCUGGUGAAUCAGCGAAUUCCGCUGUAUAUCUC [A5U C11A A18G C34U C40U U60A U69C] | 0.13 |
| UAACUGGGGGACACAGCAAAAGCGUUCACGUGGCAGCCCCUGUCAGAUUCUGGUGAAUCUGCGAAUUCAGCUGUACAUCUC [A5U C11A G19A C32G U69A U76C] | 0.11 |
| UAACUGGGGGGCCCAGCAGAAGCGUCCACGUCGCAGCCCCUGUCAGAUUCAGGUGAAUCUGCGAACUCUGCUGUAUAUCUC [A5U C11G A13C U26C U51A U66C] | 0.11 |
